In patent US20210246210A1 (JIANGSU ALPHAMAB BIOPHARMACEUTICALS, published 2021):

Legend:
CTLA4-muFc [1] = target: T1, CTLA4-muFc (human); test: ELISA, CTLA4-muFc coated, anti-human Fc-HRP detection (FIG. 2, Panel C)
T1 construct: also called soluble human CTLA4

[2] = target: T2, human CTLA4 on HEK293-CTLA4 cells (human, UniProt P16410 36-223); test: flow cytometry, HEK293-CTLA4 cells, MFI [cont.) H]
T2 construct: whole, on cells; also called cell-surface CTLA4

PD-L1-muFc = target: T3, PD-L1-muFc (human); test: ELISA, PD-L1-muFc coated, anti-human Fc-HRP detection (FIG. 2, Panel B)
T3 construct: also called soluble human PD-L1

CTLA4-muFc [3] = target: T1, CTLA4-muFc; test: ELISA, CTLA4-muFc coated, anti-human Fc-HRP detection (FIG. 2, Panel A)
[4] = target: T4, human PD-L1 on A375-hPD-L1 cells (human, UniProt Q9NZQ7); test: flow cytometry, A375-hPD-L1 cells, MFI [cont.) G]
T4 construct: whole, on cells

PD-L1-huFc = target: T5, PD-L1-huFc (human); test: bridging ELISA: PD-L1-huFc coated, dimer titrated, bound dimer detected with CTLA4-muFc and HRP goat anti-mouse Fc, OD 450/650 nm [cont.) D]
T5 construct: also called soluble PD-L1

T1 sequence (chain, as listed by the source limits assumed): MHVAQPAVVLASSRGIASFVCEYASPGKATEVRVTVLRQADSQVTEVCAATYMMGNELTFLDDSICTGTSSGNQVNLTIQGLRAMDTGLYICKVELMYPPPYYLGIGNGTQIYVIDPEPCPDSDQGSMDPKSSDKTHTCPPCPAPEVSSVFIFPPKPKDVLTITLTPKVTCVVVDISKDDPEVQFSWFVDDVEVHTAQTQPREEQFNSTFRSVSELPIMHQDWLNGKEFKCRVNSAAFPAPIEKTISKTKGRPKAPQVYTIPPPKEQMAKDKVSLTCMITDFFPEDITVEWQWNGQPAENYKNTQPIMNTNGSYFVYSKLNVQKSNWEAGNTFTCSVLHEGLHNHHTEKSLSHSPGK
Sequence of PD-L1-huFc (chain, as listed by the source limits assumed): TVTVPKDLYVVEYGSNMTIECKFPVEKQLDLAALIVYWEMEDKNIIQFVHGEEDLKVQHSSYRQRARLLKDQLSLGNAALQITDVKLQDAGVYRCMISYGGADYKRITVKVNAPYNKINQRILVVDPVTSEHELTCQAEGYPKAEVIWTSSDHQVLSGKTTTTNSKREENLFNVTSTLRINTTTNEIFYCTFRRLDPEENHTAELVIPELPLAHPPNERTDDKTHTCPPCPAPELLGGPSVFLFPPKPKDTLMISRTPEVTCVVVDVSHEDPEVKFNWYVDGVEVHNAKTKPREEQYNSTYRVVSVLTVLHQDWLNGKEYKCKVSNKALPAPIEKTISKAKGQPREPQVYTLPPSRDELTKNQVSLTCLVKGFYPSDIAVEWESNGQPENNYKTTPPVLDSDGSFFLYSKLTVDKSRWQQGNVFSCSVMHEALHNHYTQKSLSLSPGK
T2 sequence (P16410 36-223): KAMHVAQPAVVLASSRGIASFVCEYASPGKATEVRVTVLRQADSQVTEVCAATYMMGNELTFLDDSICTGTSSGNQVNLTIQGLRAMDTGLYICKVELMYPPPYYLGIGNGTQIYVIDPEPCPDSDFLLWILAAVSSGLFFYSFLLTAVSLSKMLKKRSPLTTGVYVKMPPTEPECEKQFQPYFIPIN
T4 sequence (Q9NZQ7 19-290): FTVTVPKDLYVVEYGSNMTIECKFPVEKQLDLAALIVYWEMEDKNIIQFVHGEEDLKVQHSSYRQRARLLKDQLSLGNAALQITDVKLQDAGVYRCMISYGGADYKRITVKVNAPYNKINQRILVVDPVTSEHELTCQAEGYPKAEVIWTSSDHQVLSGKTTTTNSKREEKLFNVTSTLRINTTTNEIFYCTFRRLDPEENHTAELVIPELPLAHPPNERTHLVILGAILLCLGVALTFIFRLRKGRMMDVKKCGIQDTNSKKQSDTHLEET
Sequence of PD-L1-muFc (chain, as listed by the source limits assumed): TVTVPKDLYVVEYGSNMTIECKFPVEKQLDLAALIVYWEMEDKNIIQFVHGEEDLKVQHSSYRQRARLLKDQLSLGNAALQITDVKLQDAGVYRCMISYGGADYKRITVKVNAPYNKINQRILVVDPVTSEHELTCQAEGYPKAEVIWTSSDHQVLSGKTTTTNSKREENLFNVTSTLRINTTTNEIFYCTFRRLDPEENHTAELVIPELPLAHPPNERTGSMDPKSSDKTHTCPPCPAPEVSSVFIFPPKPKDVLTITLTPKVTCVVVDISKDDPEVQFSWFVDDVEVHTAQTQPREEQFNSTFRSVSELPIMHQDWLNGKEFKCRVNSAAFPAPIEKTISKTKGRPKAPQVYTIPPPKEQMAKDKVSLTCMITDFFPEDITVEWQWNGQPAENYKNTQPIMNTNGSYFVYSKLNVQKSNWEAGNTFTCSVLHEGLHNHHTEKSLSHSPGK

Binder	EC50 (CTLA4-muFc [1]) [nM]	EC50 (read off the curve) [2] [nM]	EC50 (PD-L1-muFc) [nM]	EC50 (CTLA4-muFc [3]) [µg/mL]	EC50 (read off the curve) [4] [nM]	EC50 (read off the curve) (PD-L1-huFc) [µg/mL]
aPDL1.9-L-aCTLA4.34-Fc (bispecific antibody, human IgG1, Dimer) QVQLVESGGGLVQPGGSLRLSCAASGKMSSRRCMAWFRQAPGKERERVAKLLTTSGSTYLADSVKGRFTISRDNSKNTVYLQMNSLRAEDTAVYYCAADSFEDPTCTLVTSSGAFQYWGQGTLVTVSSGGGGSGGGGSGGGGSQVQLVESGGGLVQPGGSLRLSCAASGYIYSAYCMGWFRQAPGKGLEGVAAIYIGGGSTYYADSVKGRFTISRDNSKNTLYLQMNSLRAEDTAVYYCAADVIPTETCLGGSWSGPFGYWGQGTLVTVSSGS[skipping human IgG1 Fc with changes]				~0.04		~0.005
aCTLA4.34-aPDL1.9-Fc (bispecific antibody, human IgG1, Dimer) QVQLVESGGGLVQPGGSLRLSCAASGYIYSAYCMGWFRQAPGKGLEGVAAIYIGGGSTYYADSVKGRFTISRDNSKNTLYLQMNSLRAEDTAVYYCAADVIPTETCLGGSWSGPFGYWGQGTLVTVSSGAPQVQLVESGGGLVQPGGSLRLSCAASGKMSSRRCMAWFRQAPGKERERVAKLLTTSGSTYLADSVKGRFTISRDNSKNTVYLQMNSLRAEDTAVYYCAADSFEDPTCTLVTSSGAFQYWGQGTLVTVSSGS[skipping human IgG1 Fc with changes]				~0.04		~0.005
aCTLA4.34-L-aPDL1.9-Fc (bispecific antibody, human IgG1, Dimer) QVQLVESGGGLVQPGGSLRLSCAASGYIYSAYCMGWFRQAPGKGLEGVAAIYIGGGSTYYADSVKGRFTISRDNSKNTLYLQMNSLRAEDTAVYYCAADVIPTETCLGGSWSGPFGYWGQGTLVTVSSGGGGSGGGGSGGGGSQVQLVESGGGLVQPGGSLRLSCAASGKMSSRRCMAWFRQAPGKERERVAKLLTTSGSTYLADSVKGRFTISRDNSKNTVYLQMNSLRAEDTAVYYCAADSFEDPTCTLVTSSGAFQYWGQGTLVTVSSGS[skipping human IgG1 Fc with changes]				~0.04		~0.005

Second part, the binder after the results:

EC50 (CTLA4-muFc [1]) [nM]	EC50 (read off the curve) [2] [nM]	EC50 (PD-L1-muFc) [nM]	EC50 (CTLA4-muFc [3]) [µg/mL]	EC50 (read off the curve) [4] [nM]	EC50 (read off the curve) (PD-L1-huFc) [µg/mL]	Binder
~0.5	~2					dAb-aCTLA4.34-Fc (Fc fusion) QVQLQESGGGSVQAGGSLRLSCEASGYTYCMGWFRQAPGKEREGVALAVTGISIPYYADSVKGRFTISQDNVKNTLYLQMNSLKPEDAAMYYCAASTIRYVCPGLNRGDQFKNWGQGTQVTVSSGAPQVQLVESGGGLVQPGGSLRLSCAASGYIYSAYCMGWFRQAPGKGLEGVAAIYIGGGSTYYADSVKGRFTISRDNSKNTLYLQMNSLRAEDTAVYYCAADVIPTETCLGGSWSGPFGYWGQGTLVTVSS[skipping human IgG1 Fc with changes]
~0.5	~4	~0.6	~0.04	~0.2		aPDL1.9-aCTLA4.34-Fc (bispecific antibody, human IgG1, Dimer of two chains expressed from one vector) QVQLVESGGGLVQPGGSLRLSCAASGKMSSRRCMAWFRQAPGKERERVAKLLTTSGSTYLADSVKGRFTISRDNSKNTVYLQMNSLRAEDTAVYYCAADSFEDPTCTLVTSSGAFQYWGQGTLVTVSSGAPQVQLVESGGGLVQPGGSLRLSCAASGYIYSAYCMGWFRQAPGKGLEGVAAIYIGGGSTYYADSVKGRFTISRDNSKNTLYLQMNSLRAEDTAVYYCAADVIPTETCLGGSWSGPFGYWGQGTLVTVSSGS[skipping human IgG1 Fc with changes]
